{"source": "paper PMC12136788", "binders": {"B1": {"name": "chr2:52995849:52995850:-_ENSMUSG00000061136_ENSMUST00000076313|mus_mus|FALSE|FALSE (ssRNA)", "RNA": "GGGAGUUCUACAGUCCGACGAUCAAGAGUCAGAAAUUUAGGACUGCCCCAUCACCUGUGCCUUCAUACUACGUCUAGCAACUACAAUGUGUCUGAUGGUAUAAUCAAAACAAGACAAUAGAGUAGACUGGAUUUACAUGUUUUCAACAGAGGAUUGAGCAUCA"}, "B2": {"name": "chr7:135840685:135840686:-_ENSMUSG00000048170_ENSMUST00000057557|mus_mus|motif|central (ssRNA)", "RNA": "GGGAGUUCUACAGUCCGACGAUCCAACUCCCUUGAUUUAUCAAGGCCGACCCUGUUUCCUUGGUUAGCAGGGAAGAAUCGGAGGGACCACUGAUUGAUCUUCACACACAGCAGAUGAGAUUAACAGCAAGGUUCUAACUUUUCCAACAGAGGAUUGAGCAUCA"}, "B3": {"name": "chr2:29016751:29016752:+_ENSG00000213639_ENST00000296122|perfect_dup|FALSE|FALSE (ssRNA)", "RNA": "GGGAGUUCUACAGUCCGACGAUCUUUAGCAAAAAAUUCAUAUCCGUCUUCCACCACCUGAUGAGCUCGACAAAUCAAGUCUAAAUCAUGACGAUUCAGAAAUUUACUGACUACAUCAGCUCCAAAAGUAAAAGAAACACCACGCAACAGAGGAUUGAGCAUCA"}, "B4": {"name": "chr13:59555571:59555572:-_ENSMUSG00000021557_ENSMUST00000164215|mus_mus|FALSE|FALSE (ssRNA)", "RNA": "GGGAGUUCUACAGUCCGACGAUCAAAAGAGAAAGGAAUUGCUAAUGUCUGAUUGGUGGCAAGAGGCAUGAAGCUGUAGCUAUUAAAUGGCCCUGAGCCAGUCCUCCCAGGAGAGUGCCGAUGGCCAGGUCACUGUCAUCGCGUCAACAGAGGAUUGAGCAUCA"}, "B5": {"name": "chrX:34421674:34421675:+_ENSMUSG00000016308_ENSMUST00000016452|mus_hu|FALSE|FALSE (ssRNA)", "RNA": "GGGAGUUCUACAGUCCGACGAUCGAACAUCUUAGAGACAAAUCUAACUGUAGGUGGUUUAUUUGGAUAUUCUUCAGUGAAUUCUAUUGUAAGUUUAAAUGUUCCAUCCUCAAACGGGGUCCCUUCAGGCCCGAAAAUGACCGCCAACAGAGGAUUGAGCAUCA"}, "B6": {"name": "chr13:100191535:100191536:-_ENSMUSG00000052727_ENSMUST00000064762|mus_mus|FALSE|FALSE (ssRNA)", "RNA": "GGGAGUUCUACAGUCCGACGAUCAGAGGGGAUAUUGCACACAAAUAUCAUAAAAGCACUACAUAUUACUUUCACUGGAAACUAAUUUUUCUACAUUAGAUAUGACUGGAUAGGAUGGAAGUGAUGCAGGAUUAUAAGACAUAACAACAGAGGAUUGAGCAUCA"}, "B7": {"name": "chr3:58389886:58389887:+_ENSMUSG00000075700_ENSMUST00000107924|mus_mus|FALSE|FALSE (ssRNA)", "RNA": "GGGAGUUCUACAGUCCGACGAUCUUUGCCAACAAUUAUUAAGCCUAUUAAUACUAGUUUGAAGACUGACAGGAAAGAUGCUAUGUGUCUAUAAAUUGGUUGAGGGAGAUAAUUCUCGCCUUCAAUGCGGAUGUCUGGAUACCGCAACAGAGGAUUGAGCAUCA"}, "B8": {"name": "chr17:64801638:64801639:+_ENSG00000154229_ENST00000413366|hu_mus|hu_hu_hu_mus_False|88_108 (ssRNA)", "RNA": "GGGAGUUCUACAGUCCGACGAUCUAUAAAUACAUAUACAUAUGUACACAUAUGUAGUAAAACCCUAGUUAAACGUGUAAAGUAGCCAUUCAUUUUUAAAAUUACAUCUACAUUAAAAAAUUAAUAUAUCUGAUAGAGUGCCAGCAACAGAGGAUUGAGCAUCA"}, "B9": {"name": "chr18:48422213:48422214:+_ENSG00000082212_ENST00000321341|hu_mus|FALSE|FALSE (ssRNA)", "RNA": "GGGAGUUCUACAGUCCGACGAUCGCUUGCCCUUCUCUUUCAGGUGCACUCGGCGGCAGGUCAAGGUACAAGGAGUGGUAACAGCUCUUAGCCGGGAAAACAUCUUCUCUCCCCGGACGCCUGGCCCGUGCCAGGUGGUGCAGCCAACAGAGGAUUGAGCAUCA"}, "B10": {"name": "chr8:42881778:42881779:+_ENSG00000168172_ENST00000307602|hu_mus|FALSE|FALSE (ssRNA)", "RNA": "GGGAGUUCUACAGUCCGACGAUCCAACAAGUAGGGACAGUCUCGAGGUUUUUAUUUUAGGAGACAGCACCUUAAAGGGUAAGAAAAAUCUCAUUCAACAGAAAAGUGUUUAGUGAGUAGAGCACUUGCCCUGGAGUGCACGAGCAACAGAGGAUUGAGCAUCA"}, "B11": {"name": "chr11:100452292:100452293:-_ENSMUSG00000014195_ENSMUST00000014339|perfect_dup|motif|central (ssRNA)", "RNA": "GGGAGUUCUACAGUCCGACGAUCAUUUGUUUUUAUGUUGUUGGGAUCUAUCCCCAAGGCUUCUGUGUACAGUUCAUAUGCGGGCUUGUAAUUUCCUUCCUUAAAGGCUUUAUUCCCAUCUUCCUUCUUGGCUUUAAGGGCUUUCAACAGAGGAUUGAGCAUCA"}, "B12": {"name": "chr14:102368134:102368135:+_ENSG00000078304_ENST00000445439|hu_hu|hu_hu_hu_mus_True|48_108 (ssRNA)", "RNA": "GGGAGUUCUACAGUCCGACGAUCAAGGGGUUCCAUGAUCUUCACAAACUCUGAUGGUUCAAUUACAUCUAAAAUUUCUUCUAAUUCGUUUAAGAACAUUACUUCUUUUGGACUGUGAGUCUUUGGCCAGUAUUUGAGAAGUGCCAACAGAGGAUUGAGCAUCA"}, "B13": {"name": "chr14:66974463:66974464:+_ENSMUSG00000022044_ENSMUST00000074523|mus_hu|mus_mus_mus_hu_False|18_18 (ssRNA)", "RNA": "GGGAGUUCUACAGUCCGACGAUCUUGUAGGACGACUUAUUCAGGGGAUCGGCCAGGAAGCAGGAGCAGAACAAGGACACCAGCGGGAGCUCCUUCAUCUUCUCUUUGUAGGCAGCAAGAGUCAUGUUUCUGGGAUCUGGUGGCCAACAGAGGAUUGAGCAUCA"}, "B14": {"name": "chr3:10015032:10015033:+_ENSMUSG00000027533_ENSMUST00000029046|mus_mus|motif|central (ssRNA)", "RNA": "GGGAGUUCUACAGUCCGACGAUCGUUGUUGCCAUCACACGUAAUGAUACAGUCUGGCUUGGCCAUGGCAGCCAUCUUCCGGAGAGCCAGUCCUACUCCUAGCUCUUUCAUGUACUCCUCAAAGCCGUGGCUUUCCAUCAGGCGCAACAGAGGAUUGAGCAUCA"}, "B15": {"name": "chr19:47150976:47150977:-_ENSG00000197380_ENST00000391916|hu_hu|FALSE|FALSE (ssRNA)", "RNA": "GGGAGUUCUACAGUCCGACGAUCACUGGGGAGUCACCAUCGUCAUAAUAAAUACAGUAAUUUUAAAAAAGAAAAAAAAUACUAGAUUGGAACAGCUGAGGGUCAUCAGGCUUCCCCCAUUCCCUCUCACAGGGAGUGGGGGUCCAACAGAGGAUUGAGCAUCA"}, "B16": {"name": "125842170_125848949_403_3pUTR_ENSMUSG00000033917_ENSMUST00000038791|mouse|control|control (ssRNA)", "RNA": "GGGAGUUCUACAGUCCGACGAUCUGCAUCAAGACAGGAACUCCAUCAGAAGUAAACUCGAUGUCCAGCUCCACACCUGUUGCUCCAUUCUUAGCUGCCUGCCGGAUGGCCGCCAGCGUGUUCUCGGGCGCGUCGUGGCUGCCGCAACAGAGGAUUGAGCAUCA"}, "B17": {"name": "chr1:6260860:6260861:+_ENSMUSG00000025907_ENSMUST00000027040|perfect_dup|FALSE|FALSE (ssRNA)", "RNA": "GGGAGUUCUACAGUCCGACGAUCUGGUUUGAGAUCCAGGGCAGGAAGAGACUCUGAGUGCAGAAAAUAUAAAGUAGGACUAACAGUAAACAAUACAUAAUUGUCGUGCCGCUCAUCUAGGAUGAUGAGAACCAAAUCUCCCACCAACAGAGGAUUGAGCAUCA"}, "B18": {"name": "chr7:29966231:29966232:-_ENSG00000136193_ENST00000242059|hu_mus|FALSE|FALSE (ssRNA)", "RNA": "GGGAGUUCUACAGUCCGACGAUCACCAAAACAGGGUGACUGUGCUUUGGGGACAAGUUUUACAUCAUCAACAAAGAUGAAAGGCUUGAAUAUGGACCUGGAAGGAUCUGGGGUCCCGGUGAAGUAGUGGAUACACGGUGAACUCAACAGAGGAUUGAGCAUCA"}, "B19": {"name": "chr2:217001844:217001845:+_ENSG00000079246_ENST00000392132|hu_hu|hu_hu_hu_mus_False|18_78 (ssRNA)", "RNA": "GGGAGUUCUACAGUCCGACGAUCACCAACUUGAGGAUUAGAUCUUUUGUCAUAAGCAUAUCGAACUAUGGCGACCAUGUUUAACUCAUCCAAAGCAUGAACGAGAGAGGAAAGGGCAACUGCAGCUGCCUCAUCAUCCUUUGCCAACAGAGGAUUGAGCAUCA"}, "B20": {"name": "chr5:37680062:37680063:+_ENSMUSG00000029121_ENSMUST00000031004|mus_hu|mus_mus_mus_hu_False|1_98 (ssRNA)", "RNA": "GGGAGUUCUACAGUCCGACGAUCUUUGGGUGUAGCUGGCACCUCGUACACAGGACCGUCAUACAUGCCCCUGGAAACCCCUUGCAAUCCAAAAACCUUAUUCCUGAUUUUGACGCGCUGGUACAGGUGCUCCGGGAAUGGCUUCAACAGAGGAUUGAGCAUCA"}, "B21": {"name": "chr11:87793471:87793472:-_ENSMUSG00000020483_ENSMUST00000020775|mus_mus|mus_mus_mus_hu_False|8_58 (ssRNA)", "RNA": "GGGAGUUCUACAGUCCGACGAUCUGGACUUGAAAAUAAAAGAAUAAGCUGGAUCCCCCACCCCCCCACAUUGUCAACCCUAUGCGAGAGUUUUGAAGGCGACUCAUGAAAAUCAGCAGCUCAAACGAAUGACAACCCCCCACCCAACAGAGGAUUGAGCAUCA"}, "B22": {"name": "chr1:184663225:184663226:-_ENSG00000116406_ENST00000318130|hu_hu|FALSE|FALSE (ssRNA)", "RNA": "GGGAGUUCUACAGUCCGACGAUCACCAACAGAUUGUUUAGCAAGUCAUAGCUCAUCCUUCUCCAUCAUUUCAAAUGCUUCUAUAUCUUCAUUCCAGUCUGCUAAUAUGGAGUCUAUAGGCUGGACCUUUUUACCCCAGCUAACCAACAGAGGAUUGAGCAUCA"}}, "note": "The list shows a part of the results.", "data": [{"molecular_target": "T1, UNK ZnF1-3 (human, UniProt Q9C0B0 31-174)", "T1 sequence": "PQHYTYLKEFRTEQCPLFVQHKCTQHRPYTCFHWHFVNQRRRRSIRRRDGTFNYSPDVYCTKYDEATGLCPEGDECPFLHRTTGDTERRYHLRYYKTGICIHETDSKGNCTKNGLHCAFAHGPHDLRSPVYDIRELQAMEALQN", "assay": "nsRBNS (natural sequence RNA bind-n-seq); RBNS binding buffer (assumed for nsRBNS): 25 mM Tris pH 7.5, 150 mM KCl, 3 mM MgCl2, 0.01% Triton X-100, 500 ug/ml BSA, 20 U/ml SUPERase-In, 4 C; UNK is unkempt and MSI1 is Musashi-1; names of the RNAs are library labels; protein concentration not given here; high values mean tight binding", "units": {"binding signal": "enrichment R"}, "values": [{"binder": "B1", "binding signal": 1.59}, {"binder": "B2", "binding signal": 0.914}, {"binder": "B3", "binding signal": 1.25}, {"binder": "B4", "binding signal": 1.13}, {"binder": "B5", "binding signal": 0.853}, {"binder": "B6", "binding signal": 1.08}, {"binder": "B7", "binding signal": 1.47}, {"binder": "B8", "binding signal": 1.67}, {"binder": "B9", "binding signal": 0.78}, {"binder": "B10", "binding signal": 1.27}, {"binder": "B11", "binding signal": 0.27}, {"binder": "B12", "binding signal": 0.823}, {"binder": "B13", "binding signal": 2.29}, {"binder": "B14", "binding signal": 0.573}, {"binder": "B15", "binding signal": 2.44}, {"binder": "B16", "binding signal": 0.77}, {"binder": "B17", "binding signal": 2.18}, {"binder": "B18", "binding signal": 1.75}, {"binder": "B19", "binding signal": 1.56}, {"binder": "B20", "binding signal": 0.859}, {"binder": "B21", "binding signal": 2.52}, {"binder": "B22", "binding signal": 1.21}]}]}
